# Data published in PubChem BioAssay AID485294 (National Center for Advancing Translational Sciences (NCATS), 2010).
# The whole screen tested about 370,000 compounds, of which about 150 (0.041%) were called active. This list was built around the results that the source calls inconclusive (neither active nor inactive); the mix of calls is not that of the screen. Calls follow the shape of the dose curve; as a rule, active = well fitted inhibition curve with a large enough effect; inconclusive = small, poorly fitted or top-dose-only effect; inactive = flat fitted curve, though single readings scatter. No potency is given beside an inconclusive call; the fits are too rough.
# Target: Beta-lactamase (Escherichia coli (strain K12)) (UniProt P00811)
# Assay: qHTS Inhibitors of AmpC Beta-Lactamase (assay with detergent); also: nearly all actives have a fitted effect of over 25% in size
# Conditions: AmpC hydrolysis of nitrocefin, absorbance 480 nm, 0.01% Triton; series mostly up to 114 µM
# Method in brief: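 20 mM phosphate pH 7.0 + 0.01% (detergent screen) or 0.0001% Triton X-100; 5.3 nM AmpC reagent; cpd preinc 15 min RT; nitrocefin (800 uM stock) to start; A480 q20 s × 4 min; Activity was normalised to no-enzyme and no-compound control wells.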
# Potency is read from the fitted curve at half-maximal effect; tags tell the direction and shape of the fitted curve.
# UniProt P00811, sequence (P00811 whole entry, looked up): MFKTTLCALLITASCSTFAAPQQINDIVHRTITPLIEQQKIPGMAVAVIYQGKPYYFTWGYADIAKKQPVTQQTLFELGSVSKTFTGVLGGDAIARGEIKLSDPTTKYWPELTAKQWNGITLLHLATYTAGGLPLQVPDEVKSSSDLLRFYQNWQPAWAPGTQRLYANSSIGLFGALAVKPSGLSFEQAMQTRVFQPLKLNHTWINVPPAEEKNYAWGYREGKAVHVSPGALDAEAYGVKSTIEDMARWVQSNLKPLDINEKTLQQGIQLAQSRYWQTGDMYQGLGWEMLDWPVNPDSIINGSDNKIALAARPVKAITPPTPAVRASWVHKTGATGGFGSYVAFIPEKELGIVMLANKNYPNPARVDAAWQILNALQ
row,Structure (SMILES),Potency
1,CC(C)(C)n1ncc2c(=O)n(CC(=O)Nc3ccc4c(c3)OCCO4)cnc21,"inconclusive [inhibitor, single point]"
2,Cc1ccn2cc(CCNC(=O)Cc3cccs3)nc2c1,inactive
3,CC(=O)Nc1ccc(C(F)(F)F)cc1Cl,inactive
4,COc1cc(OC)c(Nc2cc(C)nc3ncnn23)cc1Cl,inactive
5,Cc1ccc(CNC(=O)Cn2nnc3ccccc3c2=O)cc1,"inconclusive [inhibitor, partial curve, poor fit]"
6,COC(=O)C1=CC(C(=O)c2cccs2)=NN(c2ccc(OC)cc2)C1C(=O)OC (configuration not stated),"inconclusive [inhibitor, full curve]"
7,COCCn1c(Br)nc2c1c(=O)n(C)c(=O)n2C,inactive
8,CSc1ccc(CNCCCSc2ncccn2)cc1,inactive
9,Cc1ccc2c(c1)NC(=O)C(CC(=O)Nc1cc(Cl)ccc1C)O2 (configuration not stated),inactive
10,O=C(Nc1nccs1)c1ccc[nH]c1=O,"inconclusive [inhibitor, full curve]"
11,O=C(Cc1cccs1)N1CCN(S(=O)(=O)c2ccc(F)cc2)CC1,"inconclusive [inhibitor, single point]"
12,CC(Nc1cc(N2CCNCC2)ccc1[N+](=O)[O-])c1ccccc1 (configuration not stated),inactive
13,CCOC(=O)C1(C/C(C)=N/NC(N)=O)CC(C)(C)OC1=O (configuration not stated),"inconclusive [inhibitor, full curve]"
14,CN1CCN(NC(=O)CN(C)S(=O)(=O)c2cc(Cl)ccc2Cl)CC1,inactive
15,Cc1ccc(Nc2nc(-c3c(C)nc4ncccn34)cs2)cc1,"inconclusive [inhibitor, full curve, poor fit]"
16,Cc1[nH]n(-c2nc(-c3ccccc3F)cc(=O)[nH]2)c(=O)c1CCO,"inconclusive [inhibitor, single point]"
17,COc1ccc(CC(=O)N2CCc3ccccc3C2)cc1,inactive
18,COC(=O)c1cc(N=Nc2sc(N)nc2C)cc(C(=O)OC)c1,"inconclusive [inhibitor, full curve, poor fit]"
19,O=C(Nc1ccccc1)C1CCN(S(=O)(=O)c2ccc3c(c2)OCCO3)CC1,"inconclusive [inhibitor, partial curve, poor fit]"
20,O=c1n(-c2cccc(Cl)c2)c(=O)n2n1CCC2,"inconclusive [inhibitor, full curve, poor fit]"
21,CS(=O)(=O)Nc1ccc2c3c(cccc13)CC2,"inconclusive [inhibitor, full curve, poor fit]"
22,CSc1nc2cc(S(=O)(=O)N3CCOCC3)ccc2s1,"inconclusive [inhibitor, single point]"
